# Data reported in PubChem BioAssay AID1458 (National Center for Advancing Translational Sciences (NCATS), 2008).
# Where “and” joins values, the source holds several entries; their conditions need not be identical. Identical values can stand only once. The whole screen tested about 210,000 compounds, of which about 5,900 (2.8%) were called active. The inconclusive results got no clear call from the source; some entries with a clear call stand among them for comparison. Calls come from the whole dose curve; as a rule, active = well fitted activation curve with a large enough effect; inconclusive = small, poorly fitted or top-dose-only effect; inactive = no such curve, though single readings can be large or run the other way. Potencies beside an inconclusive call are fits to weak or partial responses and may not hold up.
# Assay: qHTS Assay for Enhancers of SMN2 Splice Variant Expression; note: nearly all actives have a fitted effect of over 55% in size; for activity change, positive = activation: % of control where 0% means no effect
# Settings: HEK293 SMN2-luciferase splicing reporter, luminescence, 30-36 h; activity change, positive = activation: at 46.1 µM (top of the series)
# Summary of the method: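 HEK293 cells carry an SMN2 minigene-luciferase reporter in which exon 7 inclusion puts luciferase in frame. Cells were seeded at 2000 cells/well, attached for 10-12 hours, then exposed to compounds for 30-36 hours at 37C before ONE-Glo luminescence.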
# Potency is the fitted concentration of half-maximal effect; tags give direction and shape of the fitted curve.
Compound,Potency,"activity change, positive = activation"
Nc1ccccc1C(=O)/C=C/c1ccc2c(c1)OCO2,"inactive and inconclusive: 3.98 µM [activator, single point]",–
O=C(c1ccco1)n1nc(-c2ccccc2)nc1NCc1ccco1,"inconclusive: 3.55 µM [activator, full curve]",–
COCCN(CCOC)c1nc(C)nc2c1nc(-c1ccccc1)n2CCN1CCCC1,–,inactive: -5.54%
Cc1cc(NS(=O)(=O)c2ccc(NC(=O)c3cnc4scc(C)n4c3=O)cc2)nc(C)n1,–,inactive: 13%
N#C/C(=C\Nc1ccccn1)C(=O)c1ccco1,–,inactive: 5.28% [at 9.22 µM]
COc1nc(OC/C(N)=N/O)nc(N2CCOCC2)n1,"inconclusive: 4.47 µM [activator, full curve, poor fit]",–
O=C(c1cccc(Br)c1)c1conc1C(=O)c1ccco1,–,inconclusive: 57.3% [activator]
CCOc1ccc(N(C(=O)c2ccccc2Cl)C2=NC(C)(C)CS2)cc1,"inconclusive: 12.6 µM [activator, partial curve]",–
CCC(C)(C)n1nnnc1C(c1cccnc1)N1CCN(c2cccc(C(F)(F)F)c2)CC1 (centres undefined),–,inactive: -16.8%
C=CCNC(=O)NC(=O)COC(=O)CCCSc1nc2ccccc2[nH]1,–,inactive: 18.8%
CCCn1nnc(NC(=O)c2sc3ccccc3c2Cl)n1,"inconclusive: 28.2 µM [activator, partial curve, poor fit]",–
S=C(Nc1ccccc1Cl)NC1CC2CCCC(C1)N2C1CC1 (centres undefined),–,inactive: -4.87%
Cc1ccc(/C=C/C(=O)Nc2nnc(C)s2)o1,"inconclusive: 7.08 µM [activator, partial curve, poor fit]",–
Clc1c(-c2ccccc2)nnn1-c1ccccc1,active: 10 µM,–
Cc1ccnc(NC(=S)NC(=O)/C=C/c2ccco2)c1,"inconclusive: 35.5 µM [activator, single point]",–
COc1ccc2cc(S(=O)(=O)c3ccccc3F)c(=O)oc2c1,–,inactive: -9.67%
N/C(=N\OC(=O)Cc1ccccc1)c1cccnc1,–,inactive: -12.4%
COC(=O)c1ccccc1NC(=O)c1cc(-c2ccc(C)cc2)on1,"inconclusive: 3.16 µM [activator, partial curve, poor fit]",–
CN(C)c1ccc(NC(=O)c2sc(SCC(=O)Nc3ccc(Br)cc3)nc2N)cc1,–,inactive: -17.7%
CC(C)c1nnc(NC(=O)c2sc3ccccc3c2Cl)s1,"inconclusive: 35.5 µM [activator, single point]",–
COc1cccc(NC(=O)COc2ncnc3sc(C)c(C)c23)c1,"inconclusive: 0.0447 µM [activator, full curve, poor fit]",–
CCOC(=O)N/N=C/c1cccc(Cl)c1Cl,"inconclusive: 10 µM [activator, partial curve]",–
CC(=O)Nc1ccc(NC(=O)c2sc3nc4n(c(=O)c3c2C)CCCCC4)cc1,–,inactive: -24.1%
CS(=O)(=O)N1N=C(c2ccccc2)CC1c1ccc2c(c1)OCO2 (centres undefined),"inconclusive: 2.82 µM [activator, full curve, poor fit]",–
CCN(CC)c1ccc2cc(-c3nc4ccccc4n3C)c(=O)oc2c1,"inconclusive: 17.8 µM [activator, partial curve, poor fit]",–

Compound,Potency,"activity change, positive = activation"
COc1ccc(N(Cc2ccccc2)C(=O)c2ccccc2[N+](=O)[O-])cc1,–,inactive: 10.3%
CCOC(=O)c1cc(C(=O)OCC)c2cc(Br)ccc2n1,"inconclusive: 1.78 µM [activator, partial curve, poor fit]",–
COc1ccc(N2CCCCn3c2nc2c3c(=O)[nH]c(=O)n2C)cc1,"inconclusive: 4.47 µM [activator, full curve]",–
O=C(NC(=S)N1CCc2ccccc21)C1CCC1,"inconclusive: 14.1 µM [activator, partial curve]",–
Cc1cc(C(=O)COc2ccccc2[N+](=O)[O-])c(C)n1C1CC1,"inconclusive: 15.8 µM [activator, single point]",–
COc1ccccc1OCCCn1c(=O)oc2ccccc21,–,inactive: 16%
CCOC(=O)c1sc(Nc2nc3c(OC)cccc3s2)cc1C,–,inactive: -108%
COc1ccc(CN(CCC(c2ccc(F)cc2)C2CCOC(C)(C)C2)C(=O)c2ccco2)cc1 (centres undefined),–,inactive: -32.3%
COc1ccc(-c2cc(C(F)(F)F)nc(S(=O)(=O)CCC(=O)N3CCOCC3)n2)cc1,"inconclusive: 35.5 µM [activator, partial curve, poor fit]",–
CCOc1ccc(/C=C/c2nc(C#N)c(N(C)C)o2)cc1,"inconclusive: 25.1 µM [activator, single point]",–
C/C(=N\Nc1ncc(Cl)cc1Cl)c1ccc(OC(F)F)cc1,"inconclusive: 0.141 µM [activator, full curve, poor fit]",–
O=C(CCn1c(SCC(=O)c2ccccc2)nc2ccccc2c1=O)NCc1ccc(F)cc1,–,inactive: 2.41%
Cc1ccc(NC(=O)c2sc3nc(CCl)[nH]c(=O)c3c2C)c(C)c1,"inconclusive: 0.0158 µM [activator, full curve, poor fit]",–
Oc1ccc(-c2csc(-c3ccccc3)n2)cc1O,"inconclusive: 31.6 µM [activator, single point]",–
CCc1ccc2oc(-c3cc(N)ccc3Cl)nc2c1,"inconclusive: 10 µM [activator, partial curve, poor fit]",–
COc1ccc(OC)c(S(=O)(=O)NCCc2ccccc2)c1,"inconclusive: 8.91 µM [activator, partial curve, poor fit]",–
c1ccc(-c2nnc3sc(-c4csc5c4CCCC5)nn23)cc1,"inconclusive: 12.6 µM [activator, partial curve]",–
CCOC(=O)c1cc2cc3ccccc3cc2[nH]1,active: 3.16 µM,–
O=C(NCCCCCNC(=O)c1ccco1)c1ccco1,"inconclusive: 10 µM [activator, partial curve, poor fit]",–
COc1ccc2c(c1)CCc1c(C(=O)N3CCCCCC3)noc1-2,"inconclusive: 15.8 µM [activator, single point]",–
CC(=O)Nc1cccc(NC(=O)CSc2ncc(-c3ccccc3)[nH]2)c1,"inconclusive: 17.8 µM [activator, partial curve, poor fit]",–
COc1ccccc1-c1coc2cc(O)ccc2c1=O,"inconclusive: 12.6 µM [activator, single point]",–
c1ccc(CN=C2NN=C(c3ccccc3)CS2)cc1,"inconclusive: 15.8 µM [activator, single point]",–
COc1ccc(-c2[nH]c(-c3ccccc3)nc2SCC(=O)NC2CCCC2)cc1,inactive,–
COc1ccc(-c2cc(NCc3ccc(C)cc3)n3cnnc3n2)cc1,–,inactive: -3.81%

Compound,Potency,"activity change, positive = activation"
CC(=O)c1c(C)[nH]c(C(=O)Nc2cccnc2)c1C,–,inactive: 21.2%
COc1ccc2nc(Cl)c(/C=N/Nc3ccccn3)cc2c1,"inconclusive: 35.5 µM [activator, single point]",–
COC1=CC(C)C2CC3OC(=O)CC4C(C)=C(OC)C(=O)C([C@]2(C)C1=O)[C@]34C (some centres undefined),–,inactive: 0.988%
O=C(c1ccc2c(c1)N(Cc1ccccc1F)C(=O)c1ccccc1S2(=O)=O)N1CCCCCC1,–,inactive: -4.33%
N/C(=N\OC(=O)c1ccc(Br)cc1)c1ccncc1,"inconclusive: 25.1 µM [activator, single point]",–
Cc1cccc(NC(=O)C2CC(=O)n3cnnc3S2)c1 (centres undefined),"inconclusive: 2.82 µM [activator, full curve]",–
Cc1cccc(NC(=O)Nc2ccc(C)cc2Br)c1,active: 12.6 µM,–
CCN(CC)C(=O)C1=C(C)Nc2nnnn2C1c1cccnc1 (centres undefined),"inconclusive: 6.31 µM [activator, partial curve, poor fit]",–
O=C(CN1CCCCC1)N1N=C(c2cccs2)CC1c1cccs1 (centres undefined),"inconclusive: 3.98 µM [activator, single point]",–
CC1CN(C(=S)SCC(=O)c2ccccc2)CC(C)O1 (centres undefined),"inconclusive: 0.0891 µM [activator, full curve, poor fit]",–
Clc1ccc(-c2ccc(SCc3ccccn3)nn2)cc1,"inconclusive: 5.62 µM [activator, partial curve, poor fit]",–
Cc1cc2n(n1)SC(Nc1ccc(F)c(Cl)c1)N2 (centres undefined),"inconclusive: 11.2 µM [activator, partial curve, poor fit]",–
Cc1nn(-c2nc3ccccc3[nH]2)c(N)c1-c1ccccc1,active: 2 µM,–
COc1cc2[nH]c(=O)n(CCCC(=O)NCc3ccccc3Cl)c(=O)c2cc1OC,–,inactive: -1.76%
O=C(Nc1ccc2c(c1)OCO2)c1c(Cl)nc2sccn12,"inconclusive: 15.8 µM [activator, single point]",–
Cc1ccc(NC(=O)OCc2cc(-c3ccccc3)on2)cc1,–,inactive: 20.2%
Cc1ccc2c(c1)c(N=NC(N)=O)c(O)n2C,–,inactive: 3.27%
CS(=O)(=O)c1cnc2c(-c3ccc(F)cc3)cnn2c1N,"inconclusive: 11.2 µM [activator, partial curve, poor fit]",–
CC(/C=N/NC(=O)Cc1cccn1C)=C\c1ccccc1,–,inactive: 12.9%
Cc1ccccc1OCc1nc2c3cnn(-c4ccccc4Br)c3ncn2n1,–,inactive: 0.826%
O=C1c2ccccc2C(=O)N1CC#CCN1CCN(C(c2ccccc2)c2ccccc2)CC1,"inconclusive: 12.6 µM [activator, single point]",–
O=C(O)c1cc(N/N=C/c2ccc3c(c2)OCO3)ccc1Cl,active: 4.47 µM,–
O=C1C(Cl)=C(NCCCN2CCOCC2)C(=O)N1CCc1ccccc1,"inconclusive: 0.251 µM [activator, full curve, poor fit]",–
COc1ccc(C2=NOC(C(=O)NCc3cccs3)C2)cc1OC (centres undefined),"inconclusive: 4.47 µM [activator, single point]",–
